# Where “and” joins values, the source holds several entries; their conditions need not be identical. Equal entries are not always repeated. In all, about 48,000 compounds went through this assay and about 1,200 (2.5%) were called active. Another 2% or so got no clear call; they are omitted.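 The calls were made as follows: active = activation of at least 60% and not above a set upper limit (about 1 call in 100 departs from these limits); inconclusive = activation of 40% to 60%, or above that upper limit; inactive = activation under 40%.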 The list shows a part of the results.
# Target: Probable G-protein coupled receptor 32 (Homo sapiens) (UniProt O75388)
# UniProt O75388, sequence (O75388 whole entry, looked up): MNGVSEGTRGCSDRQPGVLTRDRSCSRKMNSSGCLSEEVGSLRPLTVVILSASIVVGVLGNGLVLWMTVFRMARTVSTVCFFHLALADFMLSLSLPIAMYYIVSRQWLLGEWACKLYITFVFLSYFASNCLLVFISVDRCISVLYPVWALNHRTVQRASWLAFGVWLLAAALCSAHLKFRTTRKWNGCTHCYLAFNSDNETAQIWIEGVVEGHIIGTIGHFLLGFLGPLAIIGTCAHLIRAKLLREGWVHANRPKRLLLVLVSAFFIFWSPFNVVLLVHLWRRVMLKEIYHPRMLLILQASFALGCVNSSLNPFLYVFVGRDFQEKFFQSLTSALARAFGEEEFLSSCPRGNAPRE
# Assay: qHTS for Agonists of Human Resolvin D1 Receptor DRV1; also: 0% is about no effect
# Conditions: CHO-K1 GPR32 beta-arrestin PathHunter luminescence, 90 min; at 76.9 µM; hits give high values; zero percent set by DMSO-only wells
# Outline: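 CHO-K1 cells stably expressing ProLink-tagged GPR32 and Enzyme Activator-tagged beta-arrestin were seeded at 2,500 cells/well overnight, exposed to compounds for 90 min at 37 °C, then read by beta-Gal complementation chemiluminescence after 1 h detection reagent.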
row,SMILES,activation
1,Cc1cc2ccccc2n1-c1ccc(C(=O)N2CCCCC2)s1,inactive: 1.38%
2,COc1cccc(CNC(=O)CCNS(=O)(=O)c2cccc3nsnc23)c1,inactive: -1.7%
3,COCCCNC(=O)CCCn1c(=O)c2cccn2c2cccnc21,inactive: -13.7%
4,Cc1nc(C)c(-c2ccc(SCC(=O)Nc3ccccc3F)nn2)s1,inactive: 1.11%
5,CCn1cc(S(=O)(=O)c2ccccc2)c(=O)c2cc(C)ccc21,inactive: 8.97%
6,COc1cc(OC)cc(C(=O)Nc2ccc(S(=O)(=O)Nc3cc(C)nc(C)n3)cc2)c1,inactive: -40.2%
7,CCOC(=O)c1[nH]c2ccccc2c1NC(=O)c1ccc(OC(C)C)cc1,inactive: 23.2%
8,NC(=O)N/N=C/c1ccc([N+](=O)[O-])o1,inactive: 10.7% and inactive: -5.5%
9,COc1ccc(CCN2CC(C(=O)NCCc3ccc(C)cc3)CC2=O)cc1OC (stereo unspecified),inactive: -19.6%
10,CCCCn1c(COc2cccc(OC)c2)nc2ccccc21,inactive: -29.3%
11,CC(C)(CC(=O)OCC(=O)Nc1ccc(F)c(Cl)c1)CC1=NS(=O)(=O)c2ccccc2N1,active: 115%
12,COc1cc(NC(=O)c2cc3c(=O)oc4ccc(C)cc4c3s2)cc(OC)c1OC,inactive: -5%
13,O=C(CSc1nccn1-c1ccc(Cl)cc1)Nc1nc2ccccc2s1,inactive: 3.3%
14,CCOC(=O)c1c(C)[nH]c(C)c1S(=O)(=O)N1CCC(C(=O)NCc2ccccc2)CC1,inactive: -6.72%
15,Cc1ccc(C)c(OCCSc2nc3ccccc3n2CC(=O)N2CCOCC2)c1,inactive: -26.2%
16,CCc1cccc(CC)c1NC(=O)c1cc(S(=O)(=O)N2CCc3ccccc32)cn1C,inactive: 20%
17,COC(=O)c1c(NC(=O)CCCOc2ccc(C)cc2)sc2c1C(C(=O)OC)CC2 (stereo unspecified),inactive: -14.4%
18,Cc1ccc(CN2CCCn3nc(C(=O)NCCN(C)C)cc3C2=O)cc1,inactive: -1.39%
19,COc1ccc(-c2ccc(NS(=O)(=O)c3ccc(F)c(C(F)(F)F)c3)cc2)nn1,inactive: 7.37%
20,COc1cccc(OCc2nc3ccccc3n2CCOc2ccccc2)c1,inactive: -15.2%
21,Cc1nn2c(=O)cc(COC(=O)c3ccccc3NC(=O)c3ccccc3C)nc2s1,inactive: -4.69%

row,SMILES,activation
1,COc1ccc2c(c1)c1c(c(=O)n(Cc3ccccc3)c(=O)n1Cc1cc(C)ccc1C)n2C,inactive: -8.43%
2,Cc1nc2ccn(Cc3ccco3)c(=O)c2cc1C(=O)N1CCN(c2ccccc2F)CC1,inactive: -16.3%
3,COc1ccc(NC(=O)Cc2coc3cc(C)cc(C)c23)c(OC)c1,inactive: -11.6%
4,CC(C)C[C@H](NC(=O)[C@H](CCc1ccccc1)NC(=O)CN1CCOCC1)C(=O)N[C@@H](Cc1ccccc1)C(=O)N[C@@H](CC(C)C)C(=O)[C@@]1(C)CO1,inactive: -6.68%
5,Cc1ccc(S(=O)(=O)N2CCCC(c3nc4c(nnn4Cc4ccc(OC(F)(F)F)cc4)c(=O)[nH]3)C2)cc1 (stereo unspecified),inactive: -0.576%
6,Cn1nc(-c2ccc(OCC(=O)Nc3ccccc3)cc2)c2ccccc2c1=O,inactive: 13.4%
7,O=C(Cn1c(=O)nc(-c2ccccc2)c2cc(Cl)ccc21)NCc1ccccc1,inactive: -2.02%
8,CCOC(=O)c1ccc2c(c1)N(Cc1cccc([N+](=O)[O-])c1)C(=O)c1ccccc1S2,inactive: -4.43%
9,COCCNC(=O)c1cc2n(n1)CCCN(Cc1ccc(C)cc1)C2=O,inactive: -1.81%
10,Cc1c(Cl)cccc1Nc1sc(C(=O)c2ccccc2)c(N)c1S(=O)(=O)c1ccccc1,inactive: -0.764%
11,CC(=O)Cn1nnc2sc(-c3ccccc3)cc2c1=O,inactive: -7.95%
12,CSc1cccc(N2C(=O)N(Cc3ccc([N+](=O)[O-])cc3)c3ccccc3S2(=O)=O)c1,inactive: -5.02%
13,O=C1CC(c2nc3ccccc3n2Cc2c(F)cccc2Cl)CN1c1cccc(C(F)(F)F)c1 (stereo unspecified),inactive: -3.05%
14,CN(Cc1ccccc1)C(=O)c1cc2c(=O)n(C)c3ccccc3c2s1,inactive: 4.87%
15,CCOC(=O)N1CCc2c(sc3c2c(=O)n(Cc2ccccc2)c(=O)n3Cc2c(F)cccc2Cl)C1,inactive: -14.7%
16,COc1ccc(NC(=O)CC2C(=O)N(c3ccc(C)cc3)C(=O)N2CCc2ccccc2)cc1 (stereo unspecified),inactive: -2.6%
17,COc1ccc(CC(=O)Nc2c(C(=O)Nc3ccccc3F)oc3ccccc23)cc1,inactive: -8.23%
18,CCCS(=O)(=O)c1ncc(Cl)c(C(=O)Nc2scc(-c3ccccc3)c2C(=O)OCC)n1,active: 97.2%
19,CC(C)c1ccc(CNc2nc(-c3ccco3)nn2S(=O)(=O)c2ccc3ccccc3c2)cc1,inactive: -18.3%
20,Cc1cc(C)cc(N2CCn3c2nc2c3c(=O)n(Cc3ccc(Cl)cc3)c(=O)n2C)c1,inactive: 0.848%

# Reference: PubChem BioAssay AID1346428 (National Center for Advancing Translational Sciences (NCATS), 2018)
